The results in this text go back to ChEMBL document CHEMBL4888484, “Replenishing the malaria drug discovery pipeline: Screening and hit evaluation of the MMV Hit Generation Library 1 (HGL1) against asexual blood stage Plasmodium falciparum ,using a nano luciferase reporter read-out” (2022).

Among all 150,000 compounds or so, about 540 (0.36%) showed an effect of 50% or more. This is one part of the list.

The test system of the experiment is Plasmodium falciparum. Put plainly: Primary screen in NF54 nanoGlo assay, in single point, at 2uM, 72h; a lower Z score goes with more inhibition. The format is functional, Erythrocyte. The settings on record: timepoint 72 hour.
The term % Inhibition denotes the change of the read-out against control, counted positive when it falls. For `Cc1noc(C2CN(S(=O)(=O)c3cccc(F)c3)C2)n1`, the “% Inhibition” value is -14% and the Z score is recorded as 2.6.
In the same order, the values of `O=c1cc(CN2CCC[C@H](CN3CCOCC3)C2)nc2ccc(Cl)cn12` are -5% and 0.61.
On the same counts, the results for `CC(=O)N1C[C@H](C)Oc2ccc(S(=O)(=O)N3CCN(Cc4ccccc4)CC3)cc21` are -16% and 1.52.
In the same order, the values of `COCCN(CCC#N)C(=O)Nc1cccnc1` are -6% and 0.8.
As for `O=C(Nc1ccc(S(=O)(=O)N2CCCC2)cc1)N1CCCCC1`, the “% Inhibition” value is listed as -4% and the Z score is recorded as 0.85.
In the same order, the values of `Cc1ccc(-c2cc(-c3nc(C4CC4)nn3C3CCN(C)CC3)[nH]n2)s1` are 22% and -2.85.
Consider `CCn1ncnc1[C@H](C)NC(=O)CCC(=O)Nc1c(C)cc(C)cc1C`, for which the “% Inhibition” value was -8% and the Z score is reported as 1.26.
With `COc1ccc(F)c(CN(C)[C@H](c2ccccn2)C2CC2)c1F`, the “% Inhibition” value is -15% and the Z score is recorded as 1.97.
In the case of `Cc1cc(C(=O)N2CCCCC3CCCCC32)no1` (centres undefined), the “% Inhibition” value stood at 0% and the Z score is -0.07.
On the same counts, the results for `O=C(C[C@@]1(C(=O)O)CC(c2ccc(F)cc2)=NO1)Nc1ccccc1Cl` are -32% and 3.75.
In the same order, the values of `C=CCC[C@H](O)CN(Cc1ccccc1)Cc1c(-c2ccccc2)nn(C)c1Oc1ccc(C)cc1` are 5% and -0.81.
In the same order, the values of `Cc1ccc(C2=NN(c3nc(-c4ccc(Cl)cc4)cs3)[C@@](O)(C(F)(F)F)C2)cc1` are -36% and 4.24.
For `O=S(=O)(Nc1cncc(Br)c1O)c1ccc(F)c2ncccc12`, the “% Inhibition” value is 7% and the Z score is listed as -0.71.
With `CCS(=O)(=O)c1ccccc1NCc1nnc(C(C)C)n1C`, the “% Inhibition” value is -13% and the Z score was found to be 1.43.
Regarding `CCc1nnc(-c2c(C)c(S(=O)(=O)NCc3cccc(F)c3)c(C)n2CC)o1`, the “% Inhibition” value is -1% and the Z score was 0.13.
Consider `Cn1cc(CCC(=O)N2CCc3c(F)ccc(F)c32)cn1`, for which the “% Inhibition” value was -3% and the Z score was found to be 0.38.
Take `Cc1ccc(N2CC[C@@H](C(=O)NCCCN3CCOCC3)C2=O)cc1F`: the “% Inhibition” value is recorded as -3% and the Z score came to 0.37.
As to `O=C(Nc1ccc(Cl)cc1-n1cccn1)N1CCC2CCC(C1)S2(=O)=O` (centres undefined), the “% Inhibition” value is listed as 1% and the Z score is on record as -0.28.
`C#CCN(C1CCCC1)S(=O)(=O)C[C@H](C)OC`: the “% Inhibition” value is reported as -4% and the Z score is reported as 0.41.
In the same order, the values of `Clc1ccc2nc3c(nc2c1)Oc1ccccc1O3` are 1% and -0.22.
On the same counts, the results for `CN(Cc1nc(-c2ccsc2)no1)C1CC2CCC(C1)N2C(=O)OC(C)(C)C` (centres undefined) are -4% and 0.6.
Consider `COc1ccc(C(=O)N/C(=N/c2ccc(F)cc2)N2CCN(C3CCCCC3)CC2)cc1`, for which the “% Inhibition” value is 4% and the Z score is listed as -0.82.
In the same order, the values of `CC1CCN(CC(=O)N[C@](C)(C#N)C(C)C)CC1` are -12% and 1.24.
In the same order, the values of `Cc1ncc(CNC(=O)c2ccc(OC(C)C)cc2Cl)c(O)n1` are -8% and 1.2.
In the case of `Cc1nc(-c2ccc(Cl)c(S(=O)(=O)N3CCC(C(=O)N4CCc5ccccc54)CC3)c2)no1`, the “% Inhibition” value is given as 4% and the Z score is given as -0.53.
In the same order, the values of `CN(C)S(=O)(=O)c1cccc(Cl)c1Cl` are -7% and 1.
On the same counts, the results for `O=C(c1cn(Cc2cccs2)nn1)N1CCc2c(Cl)cccc2C1` are 0% and -0.01.
In the same order, the values of `Cn1c(C(=O)N2CC[S+]([O-])CC2)cc2cc(C(F)(F)F)ccc21` are -6% and 0.75.
For `Nc1ccsc1C(=O)NCCc1cc(N2CCCC2)ncn1`, the “% Inhibition” value is on record as -10% and the Z score is listed as 1.28.
With `CC(C)CN(C(=O)Cn1cnc(C(C)(C)C)n1)C1CC1`, the “% Inhibition” value is -8% and the Z score is on record as 0.92.
In the same order, the values of `CCCC[C@@H](c1cccnc1)N(C)C(=O)c1ccn(CC)n1` are -9% and 0.9.
On the same counts, the results for `CC1(C(N)=O)CN(C(=O)Cc2ccc3c(c2)OCO3)C1` are -7% and 1.05.
Consider `CNC(=O)C1CCCCC1NC1CCCC(N2C(=O)c3ccccc3C2=O)C1` (centres undefined), for which the “% Inhibition” value is 6% and the Z score is reported as -0.53.
In the case of `CN1CCCN(CC(=O)N2CCO[C@H](c3ccccc3)C2)CC1`, the “% Inhibition” value is on record as -18% and the Z score came to 2.31.
In the same order, the values of `O=C(CCc1cccc(Cl)c1)N1CC(n2ccnn2)C1` are -6% and 0.65.
On the same counts, the results for `CC1CCN(S(=O)(=O)N(C)C2CCOCC2)C2CCCCC12` (centres undefined) are -4% and 0.42.
In the same order, the values of `CCn1cc(C(=O)NC2(c3ccccc3F)COC2)c(C2CC2)n1` are -4% and 0.71.
With `CCN(CCC#N)C(=O)c1sc(C)nc1CC(C)C`, the “% Inhibition” value is -10% and the Z score amounted to 1.31.
Consider `COCCNC(=O)[C@@H](NC(=O)c1cccc(OC)c1)C1CCN(C(=O)c2cccc(F)c2)CC1`, for which the “% Inhibition” value is -8% and the Z score was 1.14.
In the same order, the values of `CC(C)CCN1C(=O)CN(S(=O)(=O)c2ccccc2)C[C@@]1(C)C(=O)NCc1ccc(F)cc1` are -12% and 1.6.
In the same order, the values of `CC(C)(C)OC(=O)N1CCC2(CC(O)c3ccc(OCCc4ccccc4)cc3O2)C1` (centres undefined) are -6% and 0.79.
On the same counts, the results for `CC[C@H]1COCCN1C(=O)NCCCCn1ccnc1C` are -11% and 1.68.
